# Measurements taken from PMC4336329 (PLoS ONE, 2015).
# In all, about 310,000 compounds went through this assay and about 14,000 (4.5%) showed an effect of 50% or more. Effects have a minus sign here. The list shows a part of the results.
# Biological target: human ether-à-go-go-related gene (hERG) potassium channel (human, UniProt Q12809)
# Assay: primary screen, population patch clamp on CHO cells stably expressing hERG
# 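Note: peak tail current of the secondary pulse compared with the same well before compound.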
# Chain of human ether-à-go-go-related gene (hERG) potassium channel (Q12809 whole entry, looked up): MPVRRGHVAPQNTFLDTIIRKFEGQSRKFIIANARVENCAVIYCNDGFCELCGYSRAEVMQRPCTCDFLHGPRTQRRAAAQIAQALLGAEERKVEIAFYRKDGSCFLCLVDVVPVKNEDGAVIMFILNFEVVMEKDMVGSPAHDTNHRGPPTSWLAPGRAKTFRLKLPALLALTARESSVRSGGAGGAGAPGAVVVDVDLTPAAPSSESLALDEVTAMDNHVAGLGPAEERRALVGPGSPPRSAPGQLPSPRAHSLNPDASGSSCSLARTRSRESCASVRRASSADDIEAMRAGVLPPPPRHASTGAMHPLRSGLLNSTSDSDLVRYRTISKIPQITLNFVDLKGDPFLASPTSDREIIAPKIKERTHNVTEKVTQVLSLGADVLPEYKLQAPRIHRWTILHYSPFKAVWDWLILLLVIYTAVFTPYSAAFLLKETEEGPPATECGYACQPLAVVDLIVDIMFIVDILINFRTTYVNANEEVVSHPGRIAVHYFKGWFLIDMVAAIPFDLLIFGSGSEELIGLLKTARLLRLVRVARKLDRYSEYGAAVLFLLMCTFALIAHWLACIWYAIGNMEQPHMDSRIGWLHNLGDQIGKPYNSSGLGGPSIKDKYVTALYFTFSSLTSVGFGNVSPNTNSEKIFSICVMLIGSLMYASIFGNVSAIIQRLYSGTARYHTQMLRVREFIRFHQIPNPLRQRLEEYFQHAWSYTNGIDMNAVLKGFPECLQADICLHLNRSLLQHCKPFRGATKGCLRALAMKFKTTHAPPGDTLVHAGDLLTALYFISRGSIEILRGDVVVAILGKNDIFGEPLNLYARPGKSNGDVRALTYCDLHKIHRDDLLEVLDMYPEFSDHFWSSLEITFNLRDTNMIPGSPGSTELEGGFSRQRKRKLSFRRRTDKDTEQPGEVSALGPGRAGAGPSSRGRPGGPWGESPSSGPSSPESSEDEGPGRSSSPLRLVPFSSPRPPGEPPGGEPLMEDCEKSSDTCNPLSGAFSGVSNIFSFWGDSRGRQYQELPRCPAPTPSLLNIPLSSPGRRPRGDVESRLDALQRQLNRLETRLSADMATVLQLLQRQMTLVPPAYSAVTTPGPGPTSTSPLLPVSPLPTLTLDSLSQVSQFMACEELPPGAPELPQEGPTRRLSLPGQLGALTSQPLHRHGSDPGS
row,Structure (SMILES),"hERG current change (%, negative = inhibition) at 10uM"
1,Cc1noc(C)c1S(=O)(=O)N(CC(=O)N1CCc2ccccc21)c1ccc(C(C)C)cc1,14.2%
2,COc1ccc(-c2cc(CCCC(=O)NCCc3ccc(OC)cc3OC)no2)cc1,5.37%
3,CC(=O)c1cc2c(=O)c3ccccc3oc2nc1C,1.37%
4,Cc1cc(=O)oc2cc(O)c(N=Nc3ccccc3)cc12,9.68%
5,CCNC(=O)/C(=C/c1ccc2c(c1)OCO2)NC(=O)c1ccc(Br)cc1,-58.3%
6,Cc1nc2ccccc2n1/N=C/c1cccnc1,-7.62%
7,CC1=Nc2ccc3ccccc3c2C1(C)C,11.4%
8,O=C(CN1C(=O)NC2(CCCC2)C1=O)Nc1ccc(F)c([N+](=O)[O-])c1,-0.524%
9,CCOC(=O)c1[nH]c(C)c(C(=O)N2CCN(c3ccccc3OC)CC2)c1C,10.6%
10,COc1ccccc1N1CCN(C(=O)c2ccc(Cn3c(=S)[nH]c4cc5c(cc4c3=O)OCO5)cc2)CC1,21.3%
11,CCN1CCN(c2ccc(NC(=O)c3cccc(OCc4ccccc4)c3)cc2)CC1,-13.3%
12,CC(C)OC(=O)/C(=C\C=C\c1ccccc1)NC(=O)c1ccccc1,1.57%
13,S=C(N/N=C1\C2CN3CCN(C2)CC1(c1ccccc1)C3)Nc1ccccc1,-12.7%
14,CCOC(=O)c1cc(-c2nnc(-c3ccc(Cl)cc3)o2)c(C)nc1C,3.64%
15,CCCC(C(=O)Nc1ccc(S(=O)(=O)Nc2ncccn2)cc1)c1ccccc1 (centres unmarked),12.7%
16,O=C(NCC(c1ccco1)N1CCOCC1)c1cccc([N+](=O)[O-])c1 (centres unmarked),12.7%
17,COc1cc(/C=C(\C#N)c2ccccn2)ccc1OCc1ccccc1,-40.8%
18,c1ccc(-c2ccc3c(c2)NCCN3)cc1,9.52%
19,CCCC1C(C#N)=C(N)Oc2cc(C)n(C)c(=O)c21 (centres unmarked),9.2%

row,Structure (SMILES),"hERG current change (%, negative = inhibition) at 10uM"
1,CC(C)(C)c1ccc(OCC(=O)NNC(=O)CCc2ccccc2)cc1,-4.88%
2,CCOC(=O)C(=CNc1cc(C)ccn1)C(=O)OCC,-3.79%
3,COc1ccc(-c2c3c(nc4sc(C(=O)Nc5ccccc5)c(N)c24)CCC3)cc1,0.447%
4,COc1ccc(O)c(CN2CCC(n3nccc3NC(=O)C3CCCC3)CC2)c1,-50.8%
5,CCn1c(CC(=O)Nc2cccc(OC)c2)nnc1SCC(=O)Nc1nccs1,-2.39%
6,COc1ccc(CCNC(=O)c2ccc(N(C)S(=O)(=O)c3ccc(C)cc3)cc2)cc1OC,-3.57%
7,CSc1nsc(SCC(=O)Nc2nc3ccccc3s2)n1,9.66%
8,CCn1c(NC(=O)Nc2cccc(C)c2C)cc2sccc21,24.2%
9,CN(CC(=O)Nc1ccccc1Cl)C(=O)COC(=O)c1nc(Cl)c(Cl)c(Cl)c1Cl,-4.91%
10,NC(=O)c1ccc(Cn2c(C(=O)c3ccc(Cl)cc3)c3ccccc3[n+]2[O-])cc1,-9.74%
11,CCCCNC(=O)Nc1cc(C(F)(F)F)c[nH]c1=O,-0.183%
12,COc1ccc(-c2nnc(NC(=O)c3ccc([N+](=O)[O-])o3)o2)c(OC)c1,19.2%
13,CCN(CC(=O)Nc1ccc(C(C)=O)cc1)CC(=O)Nc1cccc(OC)c1,-11.2%
14,CC(=O)Nc1ccc(S(=O)(=O)NCC2CCC(C(=O)N3CCCCCC3)CC2)cc1 (centres unmarked),5.67%
15,CCC(C)[C@H](NC(=O)N1CC(=O)Nc2ccccc21)C(=O)NC(C)CCc1ccccc1 (some centres unmarked),1.83%
16,Cc1cccc(C(=O)NC(=S)Nc2ccc(S(=O)(=O)N(C)c3ccccc3)cc2)c1,3.85%
17,CCCOc1cc(C)nc(-c2ccccc2O)n1,14.9%
18,CCOC(=O)C1C(=O)NC(C)C1c1ccccc1 (centres unmarked),-4.44%
19,O=S(=O)(c1ccc(S(=O)(=O)N2CCN3CCCC3C2)cc1)N1CCCC1 (centres unmarked),-0.953%

row,Structure (SMILES),"hERG current change (%, negative = inhibition) at 10uM"
1,Cc1cccc(C)c1NC(=O)CNC(=O)C1CCCN(C(=O)c2ccc(Cl)cc2)C1 (centres unmarked),4.54%
2,O=C(O)c1ccc(S(=O)(=O)NCc2ccc3c(c2)OCO3)cc1,2.42%
3,COc1cccc(SCc2noc(C(=O)NC(C)C)c2C(=O)NC(C)C)c1,2.02%
4,COc1ccc(Nc2nnc(SCc3cn4c(C)cccc4n3)s2)cc1,-52.2%
5,CC(C)c1nc2cc(C(=O)NC(C)c3cnn(C)c3)ccc2o1 (centres unmarked),13.7%
6,COCCCNc1nc2c(c(=O)[nH]c(=O)n2C)n1CCCc1ccccc1,-2.2%
7,CCCCOC(=O)C1CCC[C@@H](C)N1.Cl (some centres unmarked),-12.9%
8,CCC(C)NC(=O)CSc1nc2cc(S(=O)(=O)N3CCOCC3)ccc2n1CC (centres unmarked),11%
9,O=C(O)CCn1c(=S)n(CCC(=O)O)c2ccccc21,-1.59%
10,CCc1ccc(N(CC(=O)NC(C)(C)C)C(=O)CNC(=O)c2cccs2)cc1,15.5%
11,CCN1C2OC3OC4C(OC3OC2N(CC)S1(=O)=O)N(CC)S(=O)(=O)N4CC (centres unmarked),9.26%
12,CCN(CC)C(=O)CSc1nc2sc3c(c2c(=O)n1CCOC)CCC3,-24.3%
13,Cc1nccn1CCC(=O)Nc1ccc(Cl)cc1,-15.1%
14,COc1cccc(/C=N/N2CCN(c3ccc(Cl)cc3)CC2)c1OC,17.7%
15,Cc1[nH]c(=S)sc1Cc1ccc(F)cc1,5.62%
16,COc1ccc(COC(=O)NNC(=O)c2ccc(OC)cc2)cc1,-20.5%
17,COC(=O)CCN(c1ccccc1)S(=O)(=O)c1ccc(OC)cc1,-6.28%
18,Cc1ccc(N2CC(C(=O)N(C)CC(=O)Nc3ccc(Cl)c(C(F)(F)F)c3)CC2=O)cc1 (centres unmarked),-20.2%
